{"source": "ChEMBL document CHEMBL1157539", "about": "“Thousands of chemical starting points for antimalarial lead identification” (Nature, 2010)", "note": "Whole data set: some 13,000 compounds, median “IFI” near 4, cut for the highest 2% near 17. The list shows a part of the results.", "data": [{"assay": "GSK_TCMDC: Inhibition Frequency Index (IFI). The number of non-kinase HTS assays where a compound showed > 50 % inhibition, expressed as a percentage of the number of such assays in which the compound was tested (-0 is zero)", "type": "functional", "units": {"IFI": "%"}, "values": [{"smiles": "Oc1cc(Nc2ccnc3ccc(I)cc23)c(F)cc1Cl", "IFI": 5.97}, {"smiles": "CN1Cc2ccc(NS(=O)(=O)c3ccc(-c4ccoc4)cc3)cc2C1", "IFI": 2.16}, {"smiles": "Cc1cccc2nc(-c3cccc(-c4ccc(CNCCc5ccncc5)cc4)c3)[nH]c12", "IFI": 6.93}, {"smiles": "CNCCNCc1cccc(-c2cccc(-c3nc4cc(C(F)(F)F)ccc4[nH]3)c2)c1", "IFI": 5.88}, {"smiles": "O=S(=O)(NCCN1CCCC1)c1ccc(-c2ccccc2CNC2Cc3ccccc3C2)cc1", "IFI": 4.76}, {"smiles": "Cc1cc(F)ccc1-c1nc(NCCCN2CCCC2=O)nc2c1ccc(=O)n2-c1c(F)cccc1F", "IFI": 3.1}, {"smiles": "Cc1ccc2[nH]ncc2c1N(CC1CCCCC1)c1ccnc(Nc2ccc(OCC(O)CN3CC=CCC3)cc2)n1", "note": "(stereo not drawn)", "IFI": 12.6}, {"smiles": "Clc1ncnc2ncn(Cc3cccc(Br)c3)c12", "IFI": 2.92}, {"smiles": "COc1ccccc1N1CCN(Cc2c(O)ccc3cc(Br)ccc23)CC1", "IFI": 3.88}, {"smiles": "O[C@H]1[C@H](OCc2ccc(-c3ccccc3)cc2)CC[C@@H]1N1CCCCC1", "IFI": 0}, {"smiles": "Cc1cc2nc(-c3ccc(OCC(=O)NCc4cccc(C(F)(F)F)c4)cc3)[nH]c2cc1C", "IFI": 1.52}, {"smiles": "Cc1ccc(C(=O)Nc2cccc(CN3CCCN(Cc4ccc(O)cc4)CC3)c2)cc1", "IFI": -0}, {"smiles": "OC(c1nnc(S)n1-c1ccccc1)C(O)c1nnc(S)n1-c1ccccc1", "note": "(stereo not drawn)", "IFI": 4.29}, {"smiles": "O=C(/C=C/c1cccc2ccccc12)NCCCCCN1CCC(c2c[nH]c3ccccc23)CC1", "IFI": 4.86}, {"smiles": "COc1c(C2CCN(CCCCNC(=O)c3ccc(-c4ccc(C(=O)C(F)(F)F)cc4)cc3)CC2)ccc2c1CCCC2", "IFI": 14.1}, {"smiles": "COc1ccc2[nH]c(C)cc(=NN=Cc3cccc(F)c3)c2c1", "IFI": 4.51}, {"smiles": "CCn1c(-c2nonc2N)nc2c(-c3cccc(NC(=O)Nc4ccccc4Cl)c3)ncc(OCCCN)c21", "IFI": 18.2}, {"smiles": "NC(=O)c1ccccc1OCC(=O)Nc1cccc(-c2ccc(-c3nc4cc(C(F)(F)F)ccc4[nH]3)cc2)c1", "IFI": 1.75}, {"smiles": "COc1ccccc1CNC(=O)c1cc(OC)c(OC)cc1NC(=O)c1cccs1", "IFI": 1.92}, {"smiles": "COCCNCc1ccc(-c2cccc(CNC3CCN(Cc4ccccc4)CC3)c2)cc1", "IFI": 7.52}, {"smiles": "NS(=O)(=O)c1ccccc1Nc1nc(Nc2ccc(N3CCOCC3)cc2)nc2c1CCC2", "IFI": 3.23}, {"smiles": "N=C(NCCCCCCNC(=N)NC(=N)c1ccc(Cl)cc1)NC(=N)c1ccc(Cl)cc1", "IFI": 4.65}, {"smiles": "CCOc1cc(C(=O)NC2CCN(Cc3ccccc3)CC2)ccc1-c1nc2cc(Cl)c(Cl)cc2[nH]1", "IFI": 0.74}, {"smiles": "COc1ccc2c(=NN=Cc3c(OC)ccc4ccccc34)cc(C)[nH]c2c1", "IFI": 1.48}, {"smiles": "O=C(Nc1ccccc1O)c1ccc(Oc2cccc(C(=O)Nc3ccccc3O)c2)cc1", "IFI": 13.9}, {"smiles": "CCOc1ccc(C(=O)Nc2ccc(-c3nc4ccccc4[nH]3)cc2)cc1[N+](=O)[O-]", "IFI": 1.47}, {"smiles": "Cc1cc(-c2cccc(CNC3CCN(C)CC3)c2)ccc1S(=O)(=O)NCCc1ccccn1", "IFI": 3.81}, {"smiles": "CC(=O)NCC(=O)NC1=NC(=N)N(OCc2ccc3ccccc3c2)C(C)(C)N1", "IFI": 3.68}, {"smiles": "Cc1cccc2nc(-c3ccc(-c4cccc(CNCc5ccc(CN)cc5)c4)s3)[nH]c12", "IFI": 11.8}, {"smiles": "Cc1cc(C)cc(-n2c(C)cc(/C=C3\\SC(=Nc4ccc(Cl)cc4)NC3=O)c2C)c1", "IFI": 1.45}, {"smiles": "Cc1cc2c(NC(=O)NC3CCN(Cc4ccc(Cl)c(Cl)c4)CC3)cccc2cn1", "IFI": 3.62}, {"smiles": "COc1cccc(-c2cnc(-c3ccncc3)nc2C2CCN(Cc3ccc(NC(C)=O)cc3)CC2)c1", "IFI": 0}, {"smiles": "Cc1ccc(Cn2nc(N3CCNCC3)ccc2=O)cc1NC(=O)Nc1ccc(-c2ccccc2)cc1", "IFI": 4.11}, {"smiles": "Cc1ccc(NC(=O)c2ccc(NCCCN(C)Cc3ccccc3)c([N+](=O)[O-])c2)cc1F", "IFI": 3.73}, {"smiles": "O=C(Nc1cccc(C(F)(F)F)c1)c1cccc2nc(C(F)(F)F)[nH]c12", "IFI": 16.4}, {"smiles": "COc1ccc(Cl)c(CC2c3cc(O)c(Cl)cc3CCN2C)c1", "note": "(stereo not drawn)", "IFI": 2.13}, {"smiles": "O=c1cc(NCCCNCc2cc3ccccc3s2)[nH]c2ccccc12", "IFI": 2.19}, {"smiles": "CCCC1(NC[C@@H](O)[C@H](Cc2ccccc2)NC(=O)c2cc(NCC)cc(N3CCCCS3(=O)=O)c2)CCC1", "IFI": 0.74}, {"smiles": "CCOC(=O)c1cc(C(=O)NCCCCN2CCC(c3cn(C)c4ccccc34)CC2)ccc1-c1ccc(C(F)(F)F)cc1", "IFI": 5.31}, {"smiles": "Cc1ccc(CN2CCCN(Cc3cccc(NC(=O)c4ccc(Cl)c(Cl)c4)c3)CC2)cc1", "IFI": 6.58}, {"smiles": "CCCCCN1CCC(CNS(=O)(=O)c2ccc(C(=O)Nc3cccc(C(F)(F)F)c3)cc2)CC1", "IFI": 7.22}, {"smiles": "O=C(NC(Cc1ccccc1)C(=O)O)c1cc(=O)c2ccccc2o1", "note": "(stereo not drawn)", "IFI": 2.21}, {"smiles": "CCOC(=O)c1ccc(COc2ccc(C)nc2)cc1", "IFI": 0.74}, {"smiles": "CC(C)c1ccc(OCCCON2C(=N)N=C(N)NC2(C)C)cc1", "IFI": 6.34}, {"smiles": "COC(=O)c1ccc2[nH]cc(C3CCN(CCC4CCN(C(=O)/C=C/c5ccc(Cl)c(Cl)c5)CC4)CC3)c2c1", "IFI": 4.2}, {"smiles": "CC(c1cccc(Nc2nccc(-c3c(-c4cccc(NC(=O)c5c(F)cccc5F)c4)nn4ncccc34)n2)c1)S(C)(=O)=O", "note": "(stereo not drawn)", "IFI": 7.75}, {"smiles": "CN(C)C(CNC(=O)c1cc(-c2ccncc2)c(-c2ccc(NC(=O)Nc3cccc(F)c3)cc2)o1)c1ccccc1", "note": "(stereo not drawn)", "IFI": 8.22}, {"smiles": "CS(=O)(=O)c1ccc(CNCc2cccc(-c3cccc(-c4nc5cc(F)ccc5[nH]4)c3)c2)cc1", "IFI": 2.83}, {"smiles": "CCC(=Cc1cccc([N+](=O)[O-])c1)C(=O)NCC1CCN(c2nc3cc(OC)c(OC)cc3c(=N)[nH]2)CC1", "IFI": 4.39}, {"smiles": "CN(C)Cc1ccc(O)c(-c2ccc(C(C)(C)C)cc2)n1", "IFI": -0}, {"smiles": "CC(C)CN(c1nc(C(=O)NNC(=O)[C@H](CC2CC2)NC(=O)c2cc3cc(OCCN4CCCCC4)ccc3o2)cs1)C1CC1", "IFI": 4.38}, {"smiles": "Clc1ccc(OCCC2CCN(CCCCCCN3CCCCC3)CC2)cc1Cl", "IFI": 9.87}, {"smiles": "Cc1cc(C2CCN(CCCCNC(=O)c3ccc(-c4ccc(C(F)(F)F)cc4)cc3)CC2)c(C)cc1OCCO", "IFI": 4.59}, {"smiles": "COc1cc2c(cc1OC)C(C(=O)Nc1cc(OC)c(OC)c(OC)c1)C(c1ccc(SC)cc1)N(C)C2=O", "note": "(stereo not drawn)", "IFI": -0}, {"smiles": "CN1CCCC(OC(=O)c2ccccc2)C1", "note": "(stereo not drawn)", "IFI": 0}, {"smiles": "Fc1ccc2[nH]c(-c3ccc(-c4ccc(CNCC5CCCO5)cc4)cc3)nc2c1", "note": "(stereo not drawn)", "IFI": 7.92}, {"smiles": "CCN(CC)CCCNC(=O)/C(=C/C=C/c1cc2cc(Cl)c(Cl)cc2[nH]1)OC", "IFI": 8.46}, {"smiles": "COc1ccc2nccc(N3CCC(NCCNS(=O)(=O)c4ccc5c(c4)NC(=O)CS5)C3)c2n1", "note": "(stereo not drawn)", "IFI": 1.53}, {"smiles": "COc1cc(C)nc2ccc(NC(=O)Nc3ccc([N+](=O)[O-])cc3C)cc12", "IFI": 3.01}, {"smiles": "Cc1ccc2[nH]c(C)cc(=NN=CC=Cc3ccccc3)c2c1", "IFI": -0}, {"smiles": "CC(C)(CC1CCCCC1)NC(=O)[C@H](CC1CCCCC1)Nc1ccc(C#N)c2ccccc12", "IFI": 0.97}, {"smiles": "CC(C)COc1ccc(Cl)cc1Cc1ccc(-c2nc3ccc(C(F)(F)F)cc3[nH]2)o1", "IFI": 11.3}, {"smiles": "O=C(Nc1ccc(OC2CCN(Cc3ccsc3)CC2)c(Cl)c1)c1cccs1", "IFI": 7.81}, {"smiles": "COc1ccc(NC(=O)/C=C/c2ccccc2Cl)cc1OCCN1CCC(N2CCCC2)CC1", "IFI": 0.72}, {"smiles": "O=C(Nc1ccccc1)N(Cc1ccc(-c2ccc(CNCc3ccc4c(c3)OCO4)cc2)cc1)C1CCN(Cc2ccccc2)CC1", "IFI": 2.86}, {"smiles": "CCCOc1ccc(CCCON2C(N)=NC(N)=NC2(C)C)cc1", "IFI": 6.29}, {"smiles": "CN1C(C)(C)CC(NC(=O)c2ccc(-c3nc4cc(Cl)c(Cl)cc4[nH]3)cc2)CC1(C)C", "IFI": 3.82}, {"smiles": "Cc1cc(NC(=O)CCCN2CCN(c3cccc(Cl)c3Cl)CC2)ccc1N1CCN(C(C)C)CC1", "IFI": 12.2}, {"smiles": "COc1ccc(CNCc2ccc(F)cc2)cc1-c1cccc(S(=O)(=O)NCCN2CCCC2)c1", "IFI": 11.5}, {"smiles": "O=c1c2cccnc2sn1-c1ccccc1", "IFI": 15.3}, {"smiles": "O=C(Nc1ccc(-c2nc3ccccc3[nH]2)cc1)c1ccc(N2CCOCC2)c([N+](=O)[O-])c1", "IFI": 2.59}, {"smiles": "COc1ccc(C=CC(=O)Nc2ccc(N3CCCC3)cc2)cc1", "IFI": 2.96}, {"smiles": "CCNc1cc(C(=O)N[C@@H](Cc2ccccc2)[C@H](O)CN[C@@H]2CCc3ccccc32)cc(N2CCCC2=O)c1", "IFI": 2.19}, {"smiles": "Cn1nc(-c2cccc(CN[C@@H]3CCc4ccc(O)cc43)c2)c2cnc(NC3CCCC3)nc21", "IFI": 3.85}, {"smiles": "COc1cccc(NC(=O)NCCNc2ccnc(Nc3ccc(F)cc3)n2)c1", "IFI": 7.69}, {"smiles": "Cc1ccc(-c2ccc3c(c2)C=C(C(=O)NC2CCN(CCNC(=O)c4cccs4)CC2)CCC3)cc1", "IFI": 5.56}, {"smiles": "Cc1cc(N[C@@H](Cc2ccccc2)C(=O)NCc2cccs2)nc(NCC2CCCCC2)n1", "IFI": 16.3}, {"smiles": "CCc1sc(-c2ccc(C(C)(C)C)cc2)nc1C(=O)NCCCN1CCCC1=O", "IFI": -0}, {"smiles": "O=C(Nc1ccc([N+](=O)[O-])cc1)Nc1cc(C(F)(F)F)ccc1F", "IFI": 8.62}, {"smiles": "Cc1cc(C(=O)CN2C(=O)NC3(CCCc4ccccc43)C2=O)c(C)n1Cc1ccco1", "note": "(stereo not drawn)", "IFI": 1.68}, {"smiles": "CC(C)(C)CCN1CCC(CNC(=O)c2cc(-c3cccc(C(F)(F)F)c3)cs2)C1", "note": "(stereo not drawn)", "IFI": 10}, {"smiles": "O=C(Nc1ccc2c(c1)CCN2C1CCN(Cc2cc(F)cc(F)c2F)C1)c1ccco1", "note": "(stereo not drawn)", "IFI": -0}, {"smiles": "COc1cc(CS(C)(=O)=O)ccc1Nc1nccc(-c2c(-c3cccc(NC(=O)c4c(F)cccc4F)c3)nn3ccccc23)n1", "IFI": 5.38}, {"smiles": "c1cc(CN2CCC(CCN3CCCCC3)CC2)cc(-c2cccc(-c3nc4ccccc4[nH]3)c2)c1", "IFI": 5.56}, {"smiles": "COc1cc2nc(N3CCC(c4ccccc4)CC3)nc(NCc3ccc(=O)[nH]c3)c2cc1OC", "IFI": 1.87}, {"smiles": "Fc1ccc2[nH]c(-c3ccc(-c4ccc(CN5CCN(CCN6CCOCC6)CC5)cc4)cc3)nc2c1", "IFI": 5.63}, {"smiles": "NCCNC(=O)c1ccc(-c2cnc3[nH]cc(-c4ccc(C(N)=O)cc4)c3c2)cc1", "IFI": -0}, {"smiles": "O=C(/C=C/c1ccc(-c2ccccc2)cc1)NCCCCCN1CCC(c2c[nH]c3ccccc23)CC1", "IFI": 7.25}]}]}
